Measurements: the supplement of paper PMC3334620
In all, about 33,000 sequences were measured (“E-score (-0.5 to 0.5)”: median about -0.056, highest 2% from about 0.38 on). The list shows a part of the results.

Biological target: Stb4 (UniProt P50104)
Test: PBM E-score (8-mer binding enrichment) (E-score (-0.5 to 0.5)); higher = stronger / more preferred TF binding; most listed sequences are background and not binding sites
Details: protein concentration: 200 nM; construct: GST-DNA-binding domain
Description: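 Universal 'all 10-mer' protein binding microarrays (Agilent AMADID 015681) probed with GST-tagged S. cerevisiae TFs (full-length or DBD) made by in vitro transcription/translation (PURExpress), about 100-200 nM. Bound TF was detected with fluorescent anti-GST. Each ungapped 8-mer (which stands for itself and its reverse complement) is scored by the PBM enrichment score (E-score), a modified Wilcoxon-Mann-Whitney statistic from -0.5 to +0.5, computed with the Universal PBM Analysis Suite. Scale: above 0.35 generally sequence-specific binding.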

Row | Sequence | PBM E-score
1 | AACCTCTA | 0.0232
2 | CTGTTTTC | -0.0458
3 | ACAGGAGC | -0.101
4 | CCAGCAGG | -0.251
5 | GTGCGGTA | 0.0888
6 | AGCTCAAT | -0.111
7 | AGTAGAGC | -0.181
8 | CTTACTCA | 0.0099
9 | GCGTGCCA | 0.0339
10 | ATACTATC | 0.0489
11 | GATTCCAA | -0.124
12 | CCCAGGAC | -0.13
13 | CGTGTAAG | -0.166
14 | TATGACCA | 0.0287
15 | AATACTAC | 0.0628
16 | ACGCTATC | -0.0815
17 | AGTAGACG | -0.0988
18 | GAAGTGTA | -0.107
19 | CCTCCGTC | 0.0222
20 | CGGGAAAG | 0.319
21 | ACGGTCAT | -0.0289
22 | CTCTGACC | -0.188
23 | CTTCTGTC | -0.158
24 | CGCATTTC | 0.138
25 | ACATGTAC | -0.0826

Row | Sequence | PBM E-score
26 | GCTCGTCA | -0.134
27 | GGCTAACC | 0.193
28 | CTAATGTA | -0.0543
29 | GAAGAAAC | -0.0469
30 | ACAGCTAC | -0.102
31 | AAACTAAA | -0.131
32 | GTAGGTAA | -0.0429
33 | TAACCACA | -0.241
34 | ATAACGCA | -0.0729
35 | TGTAAACA | -0.141
36 | CATCGCTA | -0.195
37 | CCGGAAAG | 0.366
38 | GATGAAGA | 0.0446
39 | GGCTCCAA | -0.00749
40 | AGAGTGGC | -0.161
41 | ATCGCATC | 0.0786
42 | GAGCCCGC | 0.00267
43 | AGTCTGTA | -0.196
44 | ATAGACCC | 0.197
45 | CAGTCGAC | -0.114
46 | ACCCATGA | -0.0426
47 | ACCCCCGA | 0.317
48 | GCATACCA | -0.0344
49 | TGGATCAA | -0.243
50 | ACGGATGC | 0.298

Row | Sequence | PBM E-score
51 | CCAAATCA | -0.122
52 | CACGGAGC | 0.174
53 | GGACGTAA | -0.0839
54 | GGGAACTA | 0.183
55 | AAGGACAG | -0.0955
56 | ATATCGTA | -0.0422
57 | GTTAGGTA | -0.2
58 | CTGCGAAC | -0.298
59 | AGATATAC | -0.095
60 | AATGGAGG | -0.154
61 | ATAGAGCC | 0.0655
62 | ACAGGAGG | -0.123
63 | GCGACGGA | 0.245
64 | GTAGTAAA | -0.0798
65 | ACAACTAC | -0.113
66 | GGGGCCTA | -0.182
67 | CTATCAAG | -0.266
68 | GTCTTCAC | -0.112
69 | GTCTTCCA | -0.181
70 | ATAATTAC | 0.0147
71 | ACGATAAT | -0.132
72 | ACATAATG | 0.0642
73 | GCACGTAA | 0.0234
74 | CGCTATAG | -0.148
75 | ATCCGCAG | 0.285

Row | Sequence | PBM E-score
76 | AAAGGAGA | -0.293
77 | GGAAGCGA | 0.198
78 | GCTTGACC | -0.0331
79 | ACCGGCTA | 0.311
80 | AAGGATAA | -0.0289
81 | AGAAACGC | -0.104
82 | ATGTCCGG | 0.253
83 | GGCAGGTA | 0.111
84 | CCAAGGTA | -0.168
85 | AAAGACTC | -0.145
86 | GTGTTAAA | -0.102
87 | ATATTAGA | -0.0989
88 | CCATGCCG | 0.228
89 | CGAAACTC | 0.229
90 | ATAGACTG | -0.213
91 | AGCAGGAA | -0.193
92 | CCGGAACG | 0.424
93 | AAGGATCT | -0.232
94 | CTGTGATA | -0.0568
95 | ATCCGAAT | 0.48
96 | CGTCGTCA | -0.0271
97 | TCGAACCA | -0.236
98 | GCTCGTAC | -0.0377
99 | GGCGGTTA | 0.0844
100 | ACCGATTC | 0.165

Row | Sequence | PBM E-score
101 | GCAAGAGA | -0.173
102 | AGTCAGGC | -0.0872
103 | GAATCATC | 0.0284
104 | CATCTGAA | 0.00559
105 | CTGTGGTC | -0.144
106 | AGCATTAA | -0.0145
107 | ACGCGCGC | -0.12
108 | AAACCCCA | -0.204
109 | CTATCAGA | 0.0798
110 | ACCTCTAA | 0.046
111 | AGGCTGGG | -0.236
112 | AATACATG | 0.0132
113 | CGATATTC | 0.293
114 | ACGACCAG | -0.239
115 | TGTATTAA | -0.134
116 | ATTGATAC | 0.114
117 | CACATAAA | -0.144
118 | CAACACTC | -0.0329
119 | GGTGTGAC | -0.135
120 | GCCGTGTA | 0.026
121 | CGCCCATA | -0.021
122 | TAGTCAGA | -0.267
123 | GAGTCAAA | -0.0124
124 | AGCTAAGA | -0.055
125 | ACTGTTGC | 0.071

Row | Sequence | PBM E-score
126 | GCCGACCC | 0.335
127 | ACGTCATC | -0.178
128 | CATTCTCG | 0.111
129 | CCATGGGC | -0.0806
130 | ACCCAGCC | -0.048
131 | CATGATCC | 0.172
132 | GCGCCGAA | 0.388
133 | GGCGGTCA | 0.171
134 | TAGTTAAA | 0.0473
135 | CCTACCTA | -0.142
136 | AAAGCCGA | 0.322
137 | CCGTGGGA | -0.0683
138 | CAGAGCCC | -0.0541
139 | TTGCCCAA | -0.284
140 | GTCGAGAC | 0.0445
141 | CGAGCGAA | 0.0313
142 | CGTCGTAG | 0.0791
143 | CTGAACTA | -0.063
144 | CCTTGACC | 0.0483
145 | GGCGAGAA | -0.00888
146 | AGTCCGTG | 0.0282
147 | GAGGGTCC | 0.201
148 | AACTCATG | -0.104
149 | ACGGCACG | 0.174
150 | CGTATGTA | -0.0767

Row | Sequence | PBM E-score
151 | TACTCACA | -0.213
152 | AATTGCAG | -0.0545
153 | CGCTCAGC | -0.0683
154 | CGAGTGAA | 0.185
155 | CGTCTGCA | -0.122
156 | GAAATGTA | 0.254
157 | AGATGTTA | -0.112
158 | TGAATTCA | -0.215
159 | GGACATCA | -0.0449
160 | AAAAAGTT | 0.00642
161 | AAACGCCT | -0.0415
162 | CAGATACG | 0.0185
163 | AGATATGA | -0.0877
164 | GATCGTGA | 0.0553
165 | CCACGTCA | -0.308
166 | CCCCGCAC | -0.0073
167 | AATGTAAC | 0.101
168 | AGCAAATC | -0.0388
169 | GGAGAGGA | -0.0849
170 | TAAATGTA | -0.172
171 | GAGGGTTA | -0.107
172 | AGGGTCAC | -0.2
